According to PubChem BioAssay AID504466 (National Center for Advancing Translational Sciences (NCATS), 2011):
Screen size: about 330,000 compounds; about 4,200 (1.3%) were called active. The shares of active, inactive and inconclusive entries below differ from those in the screen. Calls come from the whole dose curve; as a rule, active = well fitted activation curve with a large enough effect; inconclusive = small, poorly fitted or top-dose-only effect; inactive = no such curve, though single readings can be large or run the other way. A potency beside an inconclusive call is a rough fit, not a confirmed value.
Potency is the fitted concentration of half-maximal effect; tags give direction and shape of the fitted curve.

Test: qHTS screen for small molecules that induce genotoxicity in human embryonic kidney (HEK293T) cells expressing luciferase-tagged ELG1; note: nearly all actives have a fitted effect of over 60% in size; for activity change, positive = activation: % of control where 0% means no effect
Conditions: HEK293T ELG1-luciferase reporter, luminescence, 16 h; series mostly up to 46 µM; activity change, positive = activation: at the top concentration
Method in brief: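 HEK293T cells expressing luciferase-tagged ELG1 were treated with compound or DMSO for 16 hr at 37°C. Luciferase activity was then read after 30 min with ONE-Glo at room temperature; rising signal flags genetic stress.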
With COc1cccc(OCc2nc3ncc(Br)cc3[nH]2)c1 the Potency was inconclusive: 23.1 µM [activator, single point].
In the case of O=C(Cc1ccccc1)NCc1ccc2c(c1)OCO2, the Potency is reported as active: 14.6 µM.
For O=C(Nc1cc(S(=O)(=O)N2CCCCC2)ccc1Cl)c1ccc(F)cc1, the “activity change, positive = activation” value was inactive: -6.99%.
With COc1ccccc1C(=O)N(CCC1CCCN1C)c1nc2ccccc2s1 (stereo not drawn) the Potency was inconclusive: 2.91 µM [activator, partial curve].
With Cc1ccnc2c1ccc1c(C)ccnc12 the Potency was inconclusive: 2.31 µM [activator, partial curve].
With CC(C)OC(=O)/C(=C/c1ccc2c(c1)c1ccccc1n2C)NC(=O)c1ccccc1 the “activity change, positive = activation” value was inactive: -0.612%.
In the case of CC(=O)Nc1cccc(NC(=O)c2cc(C)on2)c1, the Potency is reported as inconclusive: 20.6 µM [activator, partial curve, poor fit].
For CC(Cn1cncn1)NC(=O)c1cc(COc2cccc(C(F)(F)F)c2)on1 (stereo not drawn), the “activity change, positive = activation” value was inactive: 3.17%.
In the case of CC(C)(C)NC(=O)c1ccccc1NC(=O)C1CC(=O)N(C2CCCCC2)C1 (stereo not drawn), the “activity change, positive = activation” value is reported as inactive: 0.294%.
For Cc1occc1C(=O)NCCc1cccc(Cl)c1, the Potency was inconclusive: 20.6 µM [activator, single point].
In the case of CCc1cccc(NC(=O)Nc2cccs2)c1, the Potency is reported as inconclusive: 5.17 µM [activator, partial curve].
With O=S(=O)(Nc1ccccn1)c1ccc(C(F)(F)F)cc1Cl the “activity change, positive = activation” value was inactive: -3.77%.
With O=C(NNc1ncnc2ccccc12)c1cccc(Cl)c1 the Potency was inconclusive: 5.17 µM [activator, partial curve].
For Cc1cccc(NC(=O)CCCNC(=O)c2ccc(Cl)cc2)n1, the “activity change, positive = activation” value was inactive: -2.33%.
With Cc1ccccc1NC(=O)CC1(c2ccc(N(C)C)cc2)C(=O)c2ccccc2C1=O the “activity change, positive = activation” value was inactive: 0.0143%.
In the case of C/C(=N\NC(=O)c1ccc(Cl)cc1)c1ccccn1, the Potency is reported as active: 3.26 µM.
In the case of CC(=O)N1CCC(C(=O)Nc2ccc(S(=O)(=O)NCCc3ccccc3)cc2)CC1, the “activity change, positive = activation” value is reported as inactive: -2.78%.
With O=C1NN(c2cccc(Br)c2)C(=O)/C1=C/c1ccc(-c2cc([N+](=O)[O-])ccc2O)o1 the “activity change, positive = activation” value was inactive: 0.0236%.
For COc1ccc(CS(=O)(=O)/C(Cl)=C(/Cl)C(=O)Nc2ccc(OC)nc2)cc1, the Potency was inconclusive: 2.91 µM [activator, single point].
For CC1C(=O)NN=C1C(=O)N/N=C\C(Br)=C\c1ccccc1 (stereo not drawn), the Potency was inconclusive: 2.06 µM [activator, partial curve, poor fit].
With CCCNC(=O)Nc1nc2ccccc2s1 the Potency was inconclusive: 2.59 µM [activator, full curve].
With COc1c(OC)c(O)c2c(=O)cc(-c3c(O)cccc3O)oc2c1OC the Potency was inconclusive: 18.3 µM [activator, partial curve, poor fit].
With CCNC(=S)NNC(=O)c1ccccc1Cl the “activity change, positive = activation” value was inactive: -2.11%.
For CCCCOC(=O)c1ccc(-c2ccc(/C=N/NC(=S)NCC)o2)cc1, the Potency was inconclusive: 5.17 µM [activator, partial curve, poor fit].
With COc1ccc(N(CC(=O)Nc2cc(C)ccc2C)S(=O)(=O)c2c(C)noc2C)cc1 the “activity change, positive = activation” value was inactive: -12%.
For COc1ccccc1CCC(=O)NCCCn1ccc2ccccc21, the “activity change, positive = activation” value was inactive: -0.889%.
With Cc1cccc(OCCOCCSc2ncccn2)c1 the Potency was inconclusive: 12.6 µM [activator, partial curve, poor fit].
For N=c1oc2ccccc2cc1C(=O)Nc1cccc(F)c1, the Potency was inconclusive: 3.66 µM [activator, full curve].
In the case of CC(C)(C)c1ccc(C(=O)NCc2ccccc2)cc1, the “activity change, positive = activation” value is reported as inactive: 16.9%.
In the case of O=C(CSc1ccc(-c2cccc([N+](=O)[O-])c2)nn1)N1CCCC1, the “activity change, positive = activation” value is reported as inactive: 8.27%.
For COc1ccc(NC(=O)c2nc3nccc(C)n3n2)cn1, the Potency was inconclusive: 18.4 µM [activator, single point].
With COc1ccc(CN2CCNC(=O)C2CC(=O)N2CCCN(C(C)=O)CC2)c(OC)c1 (stereo not drawn) the “activity change, positive = activation” value was inactive: 1.85%.
In the case of O=C(Nc1ccc(Br)cc1)Nc1ccccc1F, the Potency is reported as inconclusive: 2.91 µM [activator, partial curve].
In the case of O=C(CCCOc1ccc(Cl)cc1Cl)Nc1ccccn1, the Potency is reported as inconclusive: 18.3 µM [activator, partial curve, poor fit].
With COCCNC(=O)c1ccc2c(c1)ncn2-c1cccc(C)c1 the Potency was inconclusive: 16.4 µM [activator, partial curve, poor fit].
With CCC(Oc1ccccc1)C(=O)N1CCC(C(N)=O)CC1 (stereo not drawn) the Potency was inconclusive: 14.6 µM [activator, partial curve, poor fit].
In the case of Cc1ccc2nc(/C(C#N)=C\c3ccc(N4CCOCC4)o3)[nH]c2c1, the Potency is reported as inconclusive: 8.2 µM [activator, partial curve].
In the case of Cc1nc2c3cnn(-c4ccccc4)c3ncn2n1, the Potency is reported as inconclusive: 29.1 µM [activator, partial curve, poor fit].
With COc1ccccc1N1CCN(/N=C/C=C\c2ccco2)CC1 the Potency was inconclusive: 4.11 µM [activator, full curve].
In the case of O/C(=C\c1nc2ccccc2[nH]1)c1cccs1, the Potency is reported as inconclusive: 0.82 µM [activator, partial curve, poor fit].
In the case of Cc1cc(C(=O)NC2CCCc3c2cnn3-c2ccc(C)c(C)c2)nc(C)n1 (stereo not drawn), the “activity change, positive = activation” value is reported as inactive: -8.23%.
With COc1cc(NC(=O)c2ccccc2Cl)ccc1NC(=O)c1ccco1 the Potency was inconclusive: 16.4 µM [activator, partial curve].
For Cc1cc(N2CCOCC2)nc2ccc(NC(=O)CCC(=O)N3CCCC(C)C3)cc12 (stereo not drawn), the Potency was inconclusive: 16.4 µM [activator, partial curve, poor fit].
With C/C(=N/NC(=O)c1ccc2c(c1)OCO2)c1cccc([N+](=O)[O-])c1 the Potency was active: 8.2 µM.
In the case of N/C(=N\OC(=O)CCC1CCCCC1)c1ccccn1, the Potency is reported as inconclusive: 14.6 µM [activator, partial curve].
For O=C(Cc1ccc2cccnc2c1)c1ccc(O)cc1O, the Potency was inconclusive: 11.6 µM [activator, partial curve].
With Cc1ccc(-c2nc3ccsc3c(=O)[nH]2)cc1 the Potency was inconclusive: 16.4 µM [activator, partial curve].
In the case of Cc1c(-c2ccccc2)nc2ccccc2c1C(=O)Nc1ccncc1, the “activity change, positive = activation” value is reported as inactive: -3.08%.
In the case of COc1ccc(/C=C/C(=O)c2ccccc2O)cc1, the Potency is reported as active: 16.4 µM.
For Cn1nnnc1SCC(=O)c1ccco1, the “activity change, positive = activation” value was inactive: 1.38%.
In the case of N#CC1=C(Nc2ccc(Br)cc2)CCC1, the Potency is reported as inconclusive: 0.651 µM [activator, full curve, poor fit].
In the case of COc1ccc(-c2nnc(SCC(=O)NCc3ccco3)o2)cc1, the Potency is reported as inconclusive: 23.1 µM [activator, partial curve, poor fit].
With O=C(Nc1ccc(Cl)cn1)c1cc2ccccc2o1 the Potency was active: 0.82 µM.
In the case of NC(=O)COc1ccc2cc(-c3ccc(F)cc3)c(=O)oc2c1, the Potency is reported as inconclusive: 7.3 µM [activator, partial curve, poor fit].
In the case of COc1ccc(CNc2nc3ccccc3s2)cc1OC, the Potency is reported as inconclusive: 20.6 µM [activator, single point].
In the case of COc1ccc2nc(N3CCCC(C(=O)NCCc4ccc(OC)c(OC)c4)C3)sc2c1 (stereo not drawn), the “activity change, positive = activation” value is reported as inactive: -9.71%.
In the case of c1ccc(CN2CCN(c3cnc4ccccc4n3)CC2)cc1, the Potency is reported as inconclusive: 23.1 µM [activator, single point].
In the case of O=C(Oc1ccc2ccccc2c1Cl)N1CCCCCC1, the Potency is reported as inconclusive: 2.91 µM [activator, full curve].
With Cc1ccc(O)c(C(=O)CC(=O)c2ccc(Cl)cc2)c1 the Potency was inconclusive: 23.1 µM [activator, single point].
With O=C(CCc1nc2ccccc2c(=O)[nH]1)Nc1cc(Cl)ccc1N1CCCC1 the Potency was inconclusive: 29.1 µM [activator, partial curve, poor fit].
In the case of CC(=O)Nc1cccc(-n2nnc(SCC(=O)c3ccccc3)n2)c1, the Potency is reported as inconclusive: 23.1 µM [activator, partial curve, poor fit].
For S=C(Nc1ccc2[nH]ccc2c1)NC1CCCCC1, the “activity change, positive = activation” value was inactive: 10.9%.
In the case of COc1ccc(CC2S/C(=N/N=C/c3ccc(O)cc3)NC2=O)cc1 (stereo not drawn), the Potency is reported as inconclusive: 10.3 µM [activator, partial curve, poor fit].
In the case of O=C(Nc1nc2c(s1)CN(Cc1ccccc1)CC2)c1cccc(S(=O)(=O)N2CCc3ccccc32)c1, the “activity change, positive = activation” value is reported as inactive: -4.92%.
For Nc1c(Nc2ccccc2)c2ccccc2oc1=O, the Potency was inconclusive: 20.6 µM [activator, single point].
With COc1ccc(/C=N/Nc2ccc([N+](=O)[O-])cc2)cc1O the Potency was active: 11.6 µM.
With Clc1ccc(-c2cnc(Oc3ccccc3)nc2)cc1 the Potency was inconclusive: 2.31 µM [activator, full curve].
With COc1ccc(OC)c(Cc2nnc(CCC(=O)N3CCCCC3c3nccs3)o2)c1 (stereo not drawn) the Potency was inconclusive: 20.6 µM [activator, partial curve, poor fit].
In the case of CC(C)c1ccc2oc(-c3ccc(N)cc3)nc2c1, the Potency is reported as inconclusive: 0.326 µM [activator, partial curve, poor fit].
For CCOC(=O)c1c(C)[nH]c(C(=O)COC(=O)C2CC2)c1C, the Potency was inconclusive: 16.4 µM [activator, partial curve, poor fit].
For CCCn1nc(Oc2nc(NCC)nc(NCC)n2)ccc1=O, the Potency was inconclusive: 16.4 µM [activator, partial curve].
With Cc1ccc(NC(=O)c2ccc3ncsc3c2)cc1S(=O)(=O)N(C)C the Potency was inconclusive: 2.59 µM [activator, partial curve].
In the case of CCN(Cc1ccccc1)C(=O)CCc1nnc(CCCc2ccccc2)o1, the Potency is reported as inconclusive: 20.6 µM [activator, partial curve, poor fit].
